Assay results reported in paper PMC2714578.
Results are given in words; binding and its absence hold for the method and conditions named. In cells and extracts the contact can be indirect. Some results given as binding are weak or reduced against the parent protein; the word gives no strength. For some assays here: Where a sequence is shown, tags or fusion partners need not be part of it.

Sequences of proteins named here, by UniProt entry; tags and fusion partners are left off.
UniProt O60493: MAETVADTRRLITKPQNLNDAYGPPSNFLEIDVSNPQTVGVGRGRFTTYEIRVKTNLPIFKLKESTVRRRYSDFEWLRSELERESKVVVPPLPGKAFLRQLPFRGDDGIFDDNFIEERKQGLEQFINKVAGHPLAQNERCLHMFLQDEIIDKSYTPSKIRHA
UniProt Q13596: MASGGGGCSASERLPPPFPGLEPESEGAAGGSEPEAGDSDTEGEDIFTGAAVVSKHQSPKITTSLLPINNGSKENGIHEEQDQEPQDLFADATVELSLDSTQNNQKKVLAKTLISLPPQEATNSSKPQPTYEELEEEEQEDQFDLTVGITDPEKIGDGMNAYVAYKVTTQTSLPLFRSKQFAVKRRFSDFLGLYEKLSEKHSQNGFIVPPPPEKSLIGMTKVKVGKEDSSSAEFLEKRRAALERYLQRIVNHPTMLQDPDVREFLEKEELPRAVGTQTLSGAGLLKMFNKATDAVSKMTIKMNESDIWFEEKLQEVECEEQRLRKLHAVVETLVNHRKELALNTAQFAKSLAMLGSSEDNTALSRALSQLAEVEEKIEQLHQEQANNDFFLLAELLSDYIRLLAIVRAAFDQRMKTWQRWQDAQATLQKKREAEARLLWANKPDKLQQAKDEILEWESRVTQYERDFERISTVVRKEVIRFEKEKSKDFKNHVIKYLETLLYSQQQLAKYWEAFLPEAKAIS
UniProt Q13409: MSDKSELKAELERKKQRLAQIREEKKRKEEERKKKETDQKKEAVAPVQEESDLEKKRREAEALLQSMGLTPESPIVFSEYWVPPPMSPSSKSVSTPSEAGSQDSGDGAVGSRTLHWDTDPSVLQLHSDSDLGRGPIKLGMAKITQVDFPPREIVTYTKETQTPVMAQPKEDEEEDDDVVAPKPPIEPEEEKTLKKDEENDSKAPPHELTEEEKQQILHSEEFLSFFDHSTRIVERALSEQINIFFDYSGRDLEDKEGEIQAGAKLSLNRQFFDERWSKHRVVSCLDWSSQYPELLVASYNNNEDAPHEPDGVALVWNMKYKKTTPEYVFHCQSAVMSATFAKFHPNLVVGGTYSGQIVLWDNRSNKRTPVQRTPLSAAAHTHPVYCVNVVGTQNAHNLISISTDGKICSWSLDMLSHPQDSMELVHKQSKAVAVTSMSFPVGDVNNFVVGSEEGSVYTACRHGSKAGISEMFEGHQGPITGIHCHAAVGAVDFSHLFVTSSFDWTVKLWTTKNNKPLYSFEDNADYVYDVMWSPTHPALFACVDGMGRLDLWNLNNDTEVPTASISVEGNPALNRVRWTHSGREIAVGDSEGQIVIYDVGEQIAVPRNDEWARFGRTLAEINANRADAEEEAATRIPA
UniProt Q13561: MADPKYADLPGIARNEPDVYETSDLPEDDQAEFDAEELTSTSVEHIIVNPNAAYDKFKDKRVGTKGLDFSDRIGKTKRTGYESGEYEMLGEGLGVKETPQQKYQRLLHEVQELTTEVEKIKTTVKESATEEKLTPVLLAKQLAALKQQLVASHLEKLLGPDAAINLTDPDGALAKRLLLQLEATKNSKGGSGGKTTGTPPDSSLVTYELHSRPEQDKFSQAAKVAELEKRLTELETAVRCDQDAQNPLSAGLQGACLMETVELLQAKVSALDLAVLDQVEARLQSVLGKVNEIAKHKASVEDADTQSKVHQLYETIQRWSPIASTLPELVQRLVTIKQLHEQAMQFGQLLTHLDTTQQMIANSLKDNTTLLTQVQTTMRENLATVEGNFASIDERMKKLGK

Tests used:
[1] = target: T1, GST-SNX6 (UniProt Q9UNH7); test: pull-down; GST-fusion proteins expressed in HEK293T cells and isolated by GST affinity chromatography; blots for endogenous p150^glued, DYNC1I2, p50^dynamitin, SNX1 and SNX2
T1 sequence: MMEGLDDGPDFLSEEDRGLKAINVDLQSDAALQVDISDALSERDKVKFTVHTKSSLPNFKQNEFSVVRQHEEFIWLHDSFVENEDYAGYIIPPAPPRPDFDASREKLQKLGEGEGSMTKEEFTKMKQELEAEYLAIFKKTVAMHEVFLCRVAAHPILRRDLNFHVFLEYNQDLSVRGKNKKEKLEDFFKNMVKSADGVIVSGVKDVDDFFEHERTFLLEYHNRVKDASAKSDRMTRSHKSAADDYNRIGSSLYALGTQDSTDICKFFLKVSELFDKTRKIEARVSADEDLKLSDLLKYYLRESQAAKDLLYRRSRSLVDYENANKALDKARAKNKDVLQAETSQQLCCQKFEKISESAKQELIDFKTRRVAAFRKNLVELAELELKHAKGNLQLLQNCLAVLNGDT

[2] = target: T2, GST-SNX5 (UniProt Q9Y5X3); test: as above
T2 sequence: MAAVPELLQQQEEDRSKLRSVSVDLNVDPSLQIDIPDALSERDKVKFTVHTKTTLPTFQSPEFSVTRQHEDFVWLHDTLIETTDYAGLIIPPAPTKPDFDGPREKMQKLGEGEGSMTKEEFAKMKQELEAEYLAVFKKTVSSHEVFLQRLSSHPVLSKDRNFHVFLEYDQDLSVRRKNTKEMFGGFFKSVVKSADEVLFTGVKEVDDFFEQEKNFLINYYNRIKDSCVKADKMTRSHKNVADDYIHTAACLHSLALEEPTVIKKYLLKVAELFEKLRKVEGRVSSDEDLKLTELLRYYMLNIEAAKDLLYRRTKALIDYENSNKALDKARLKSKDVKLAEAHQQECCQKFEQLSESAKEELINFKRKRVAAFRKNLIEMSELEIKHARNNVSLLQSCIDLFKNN

[3] = target: GST-SNX3 (UniProt O60493); test: as above
[4] = target: T3, Flag-tagged SNX6 (UniProt Q9UNH7); test: co-IP; immunoprecipitation of Flag-SNX6 from HeLa cells coexpressing GFP-SNX1 or GFP-SNX5; lysis buffer 20 mM HEPES pH 7.2, 100 mM K-acetate, 2.5 mM Mg-acetate, 0.1% Triton X-100; 4°C
T3 sequence: T1 sequence

[5] = target: T4, sorting nexin-6 (human (endogenous in HeLa)) (UniProt Q9UNH7); test: co-IP; endogenous proteins precipitated from HeLa lysate with antibodies against SNX6, SNX1 or SNX2 and G-agarose, blots for SNX1 or SNX2; lysis buffer 20 mM HEPES pH 7.2, 100 mM K-acetate, 2.5 mM Mg-acetate, 0.1% Triton X-100; 4°C
T4 sequence: T1 sequence

[6] = target: T5, GST-tagged SNX6 (UniProt Q9UNH7); test: pull-down; GST pull-downs from HeLa cells expressing GST or GST-tagged SNX3, SNX4, SNX5 or SNX6; blots for endogenous SNX1 and SNX2
T5 sequence: T1 sequence

[7] = target: GST-tagged SNX3 (UniProt O60493); test: as above
[8] = target: T6, GST-tagged SNX4 (UniProt O95219); test: as above
T6 sequence: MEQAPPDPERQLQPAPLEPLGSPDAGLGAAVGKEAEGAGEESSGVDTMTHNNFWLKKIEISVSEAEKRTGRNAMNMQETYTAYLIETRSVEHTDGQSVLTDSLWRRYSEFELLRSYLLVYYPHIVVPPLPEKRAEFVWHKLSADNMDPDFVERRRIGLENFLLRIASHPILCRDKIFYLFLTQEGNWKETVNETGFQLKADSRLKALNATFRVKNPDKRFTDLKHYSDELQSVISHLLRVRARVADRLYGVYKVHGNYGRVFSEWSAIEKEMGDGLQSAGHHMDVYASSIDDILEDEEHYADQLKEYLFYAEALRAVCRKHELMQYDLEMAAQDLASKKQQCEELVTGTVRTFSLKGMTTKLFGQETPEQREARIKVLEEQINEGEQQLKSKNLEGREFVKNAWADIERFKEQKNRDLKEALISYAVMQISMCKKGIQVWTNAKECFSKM

[9] = target: GST-SNX1 (UniProt Q13596); test: pull-down; GST fusions purified from E. coli incubated with lysate of HeLa cells lentivirally transduced with Flag-Rab6IP1; complexes isolated by GST pull-down; only the target purified
[10] = target: T7, GST-SNX4 (UniProt O95219); test: as above
T7 sequence: T6 sequence

[11] = target: T8, Flag-tagged SNX6, Q9UNH7; test: co-IP; immunoprecipitation of Flag-SNX6 from HeLa cells coexpressing GFP-SNX1 or GFP-SNX5; lysis buffer 20 mM HEPES pH 7.2, 100 mM K-acetate, 2.5 mM Mg-acetate, 0.1% Triton X-100; 4°C; conditions: remark: other sources report otherwise
T8 chain: T1 sequence

Q: Which binding [1] does the source give for “p150^glued (from UniProt Q14203-1 1-1278)” here?
A: binds

Q: What about the binding [2] of the same molecule?
A: binds

Q: And the binding [3]?
A: no binding

Q: For GFP-SNX1 (from UniProt Q13596 1-522), which binding [4] is on record?
A: binds

Q: What does the source list for “sorting nexin-1 (from UniProt Q13596 1-522)”?
A: binding [5]: binds; binding [1]: binds; binding [3]: no binding; binding [6]: binds; binding [7]: no binding; binding [8]: no binding

Q: “dynein intermediate chain (DYNC1I2) (from UniProt Q13409 1-638)” was tested. Which binding [3] did it give?
A: no binding

Q: For “p50^dynamitin (from UniProt Q13561 1-401)”, which binding [1] is on record?
A: binds

Q: What about the binding [2] of the same molecule?
A: binds

Q: And the binding [3]?
A: no binding

B1: Flag-Rab6IP1 (protein, UniProt Q6IQ26 1-1287)
chain: MSGGGGGGGSAPSRFADYFVICGLDTETGLEPDELSALCQYIQASKARDGASPFISSTTEGENFEQTPLRRTFKSKVLARYPENVEWNPFDQDAVGMLCMPKGLAFKTQADPREPQFHAFIITREDGSRTFGFALTFYEEVTSKQICSAMQTLYHMHNAEYDVLHAPPADDRDQSSMEDGEDTPVTKLQRFNSYDISRDTLYVSKCICLITPMSFMKACRSVLEQLHQAVTSPQPPPLPLESYIYNVLYEVPLPPPGRSLKFSGVYGPIICQRPSTNELPLFDFPVKEVFELLGVENVFQLFTCALLEFQILLYSQHYQRLMTVAETITALMFPFQWQHVYVPILPASLLHFLDAPVPYLMGLHSNGLDDRSKLELPQEANLCFVDIDNHFIELPEDLPQFPNKLEFVQEVSEILMAFGIPPEGNLHCSESASKLKRLRASELVSDKRNGNIAGSPLHSYELLKENETIARLQALVKRTGVSLEKLEVREDPSSNKDLKVQCDEEELRIYQLNIQIREVFANRFTQMFADYEVFVIQPSQDKESWFTNREQMQNFDKASFLSDQPEPYLPFLSRFLETQMFASFIDNKIMCHDDDDKDPVLRVFDSRVDKIRLLNVRTPTLRTSMYQKCTTVDEAEKAIELRLAKIDHTAIHPHLLDMKIGQGKYEPGFFPKLQSDVLSTGPASNKWTKRNAPAQWRRKDRQKQHTEHLRLDNDQREKYIQEARTMGSTIRQPKLSNLSPSVIAQTNWKFVEGLLKECRNKTKRMLVEKMGREAVELGHGEVNITGVEENTLIASLCDLLERIWSHGLQVKQGKSALWSHLLHYQDNRQRKLTSGSLSTSGILLDSERRKSDASSLMPPLRISLIQDMRHIQNIGEIKTDVGKARAWVRLSMEKKLLSRHLKQLLSDHELTKKLYKRYAFLRCDDEKEQFLYHLLSFNAVDYFCFTNVFTTILIPYHILIVPSKKLGGSMFTANPWICISGELGETQIMQIPRNVLEMTFECQNLGKLTTVQIGHDNSGLYAKWLVEYVMVRNEITGHTYKFPCGRWLGKGMDDGSLERILVGELLTSQPEVDERPCRTPPLQQSPSVIRRLVTISPNNKPKLNTGQIQESIGEAVNGIVKHFHKPEKERGSLTLLLCGECGLVSALEQAFQHGFKSPRLFKNVFIWDFLEKAQTYYETLEKNEVVPEENWHTRARNFCRFVTAINNTPRNIGKDGKFQMLVCLGARDHLLHHWIALLADCPITAHMYEDVALIKDHTLVNSLIRVLQTLQEFNITLETSLVKGIDI
Q: How did the binding [9] turn out when B1 was run?
A: binds

Q: And the binding [10]?
A: no binding

B2: GFP-tagged SNX5, Q9Y5X3 1-404 (protein)
chain: T2 sequence
Q: With B2 as the molecule, how does the binding [11] read?
A: no binding
